The values that follow come from patent US12599649B2, “Bioactive polypeptides for improvements in plant protection, growth and productivity” (priority 2017, dated 2026).

Assay [1] concerns tomato. The assay can be described thus: Foliar treatment of tomato, yield (Examples 11, 12, 25). Format: in vivo. The note with it: for average increase in tomato yield over control: 1 Fl. oz/Ac. On the procedure: Small scale plots were designed to simulate commercial growing conditions for tomatoes. Two hybrids of tomatoes, JetSetter (Trial 1) and Better Big Boy (Trial 2) were started as transplants in the greenhouse 42 to 56 days prior to planting in the raised field beds. Tomatoes were transplanted once soil temperatures three inches (7.6 cm) beneath the soil surface reach 60° F. (15.5° C.). Tomatoes were grown on raised beds covered with black plastic mulch. Plants were grown using drip irrigation and fertilizer applied following grower guidelines throughout the growing season to ensure optimum plant growth and yields. Small raised bed plots were designed to simulate the planting densities used by commercial growers that generally plant 2,600 to 5,800 plants per acre in single rows with 18 to 30 inches (46 to 76 cm) between plants in the row on 5- to 6.5-ft (1.5 to 2 m) centers.
Foliar treatments of Bt.4Q7 Flg22 and Ec. […] Replicated trials were conducted at the University of Missouri (Columbia, MO) in July. Control plants were treated with equal volumes (use rates) of water. Effects of the foliar treatments on increasing yield in tomatoes were determined and reported as normalized to the water control treatment.
In another experiment, tomato plants (hybrid: Better Boy), cultivated as described in the previous example, were treated with a formulation of Bt.4Q7 Flg22 at the first bloom stage. The formulation used consisted of the retro inverso D RI Bt.4Q7 Flg22 applied with 0.01% (v/v) non-ionic surfactant. […] At harvest, the yield was measured as the number of fruits per plant, the weight (grams) per fruit and the total yield (lbs/Ac). Table 29 reports the yield as a percent comparison or change to the non-treated control (water only) plants.
Foliar application treatments of Gm.RHPP (SEQ ID NO: 600) was applied as an exogenous spray at the pre-bloom stage and used to increase yield in tomatoes. Two tomato hybrids (JetSetter and Better Big Boy) were planted in small scale plots as described in Example 12. […] Replicated trials were conducted at the US Midwest (Missouri) in July. The foliar treatment of Gm.RHPP on tomato plants was compared to the control (water applied at same use rate). Effects of the foliar treatments on increasing yield in tomatoes were determined and reported as normalized to the water control treatment and reported as the average percentage change in yield over the average control yield in Table 41.

Assay [2] has as its system Cercospora kikuchii. The assay can be described thus: Cercospora leaf blight severity on soybean, Paraguay field trials (Example 53). The assay is classed as in vivo. To be noted: 150 and 300 mL/Ha, two foliar applications from R1.
Assay [3] has as its system soybean. The assay can be described thus: Phytotoxicity and defoliation of soybean, Paraguay field trials (Example 53). Format: in vivo. The note with it: Yatytay site.
Assay [4] concerns soybean. The assay can be described thus: Flg22 and RHPP on R2 soybean, field yield (Examples 3-4). To be noted: 11 sites.
[5] abbreviates: tomato, foliar 1 Fl. oz/Ac at early bloom, vs water control.

Take “RHPP: root hair promoting polypeptide derived from Glycine max (GGIRAAPTGNER; Glycine max)”: the “average increase in tomato yield over control” value in assay [1] (Better Big Boy hybrid) is reported as 10%; in assay [1] (Jetsetter hybrid), 93%; in assay [1] (average of hybrids JetSetter and Better Big Boy), 52%. Also, the “Average Trials 1 & 2 Percent Change Yield over Avg. Control” value in assay [1] (tomato, both hybrids, foliar 1 Fl. oz/Ac, vs water control) is given as “+52%”. Also, in assay [1] (setting [5]), the “Trial 1: Percent Change in Yield over Avg. Control; Hybrid: Jetsetter” value is “+93%”. For the same substance, the “Trial 2: Percent Change in Yield over Avg. Control; Hybrid: Better Big Boy” value in assay [1] (setting [5]) is “+10%”. Also, in assay [2], the “less Cercospora leaf area damage compared to untreated control” value is on record as 3.3-4.5%. The defoliation in assay [3] (R7, 150 mL/Ha) turned out to be 96%; in assay [3] (R7, 300 mL/Ha), 70%. Besides, in assay [4] (Example 4, R2, 4 Fl. oz/Ac), the yield advantage was found to be 0.31 Bu/Ac. This substance also showed a win rate in assay [4] (second study, seed treatment) of 73%. In assay [4] (second study, seed treatment), this substance gave a yield increase of 1.2 bu/Ac. Further, in assay [4] (third study, 8 fl oz/Ac), the “yield advantage on top of foliar fertilizer” value was 1 Bu/AC.
